{"source": "paper PMC12095047", "about": "“Transport of phenoxyacetic acid herbicides by PIN-FORMED auxin transporters” (Nature Plants, 2025)", "format_in_all_cases": "biochemical", "conditions_in_all_cases": "individual sensors", "key": {"A. thaliana PIN8": {"molecular_target": "T1, A. thaliana PIN8 (Arabidopsis thaliana, UniProt Q9LFP6)", "T1 construct": "made in house", "T1 sequence (Q9LFP6 1-367)": "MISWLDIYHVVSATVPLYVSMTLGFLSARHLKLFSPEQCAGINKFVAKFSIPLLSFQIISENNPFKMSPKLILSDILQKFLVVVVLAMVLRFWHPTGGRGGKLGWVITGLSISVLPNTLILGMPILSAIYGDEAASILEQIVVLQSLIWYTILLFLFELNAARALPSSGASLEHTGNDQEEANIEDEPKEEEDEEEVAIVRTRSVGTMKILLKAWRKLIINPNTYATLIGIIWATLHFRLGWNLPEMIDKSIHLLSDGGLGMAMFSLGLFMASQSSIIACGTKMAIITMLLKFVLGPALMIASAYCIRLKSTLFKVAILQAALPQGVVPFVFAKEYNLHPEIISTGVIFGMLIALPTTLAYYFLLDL", "assay": "SSM electrophysiology, peak current response on PIN8 proteoliposomes", "description": "(§1) SSM, using a SURFE2R N1 from Nanion Technologies, was conducted as described. In brief, soy polar lipid mix (38% phosphatidyl choline, 30% phosphatidyl ethanolamine, 18% phosphatidyl inositol, 7% phosphatidic acid and 7% other soy lipids) and 1-palmitoyl-2-oleoyl-sn-glycero-3-phosphocholin were purchased from Avanti. Liposomes were prepared in Ringer solution without Ca^2+ (115 mM NaCl, 2.5 mM KCl, 1 mM NaHCO3, 10 mM HEPES pH7.4, 1 mM MgCl2) and homogenized using a Lipsofast (Avestin) with a […]. Triton X-100 was added to the liposomes to a final concentration of 1% (v/v). Protein was added to liposomes to a calculated lipid-to-protein ratio (LPR) of 10 unless stated otherwise. The detergent was removed using 400 mg ml^−1 Bio Beads (BioRad) overnight at 4 °C in a rotary shaker. Proteoliposomes were frozen in liquid nitrogen and kept at −80 °C until use. Proteoliposomes were diluted 1:5 in Ringer solution without Ca^2+, sonicated five times and then applied to the sensors by centrifugation (30 min, 3,000 g, 4 °C). Non-activating buffer was Ringer solution without Ca^2+ as described unless specified otherwise, and activating buffer contained the substrate of interest. In most instances we used a single-solution exchange experiment. In this case proteoliposomes, immobilized on the supported membrane, are kept in non-activating buffer as specified. At the beginning of the experiment the non-activating buffer is replaced with fresh identical non-activating buffer, and after 1 s, activating buffer (same buffer containing substrate) is added. After another second, the buffer is replaced with non-activating buffer again. Current response is recorded throughout the entire 3 s. For competition or inhibition, the respective compound was present in non-activating and activating solutions. Each experiment was performed on at least two individual sensors. On each sensor each measurement consists of three technical replicates where the mean is calculated. KD values were determined as described previously. Briefly, the binding current induced by 100 µM NPA was recorded in the presence of different concentrations of the substrate under investigation ranging between 0 µM and 1,000 µM present in the activating solution and the non-activating solution (Extended Data Fig. 5b). […] The maximum peak current was then plotted as a function of the concentration of the substrate under investigation and plotted against the degree of inhibition and fitted with a one-site binding model using GraphPad Prism V10.4.1 The half maximal concentration corresponds to the KD of the substrate under investigation."}, "PIN8 Y150F": {"molecular_target": "T2, PIN8 Y150F (Arabidopsis thaliana, UniProt Q9LFP6, Y150F)", "T2 construct": "made in house", "T2 sequence (Q9LFP6 whole entry Y150F)": "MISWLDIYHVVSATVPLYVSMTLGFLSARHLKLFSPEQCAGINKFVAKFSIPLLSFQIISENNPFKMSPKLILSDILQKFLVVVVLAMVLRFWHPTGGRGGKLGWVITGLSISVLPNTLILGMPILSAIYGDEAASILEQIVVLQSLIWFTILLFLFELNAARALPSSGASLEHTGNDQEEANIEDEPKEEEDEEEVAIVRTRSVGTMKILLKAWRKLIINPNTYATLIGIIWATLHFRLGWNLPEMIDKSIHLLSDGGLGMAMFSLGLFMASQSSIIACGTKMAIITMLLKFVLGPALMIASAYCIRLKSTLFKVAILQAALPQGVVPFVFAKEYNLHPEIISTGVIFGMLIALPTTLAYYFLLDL", "description": "as §1\n(§2) The protocol for expression and purification of AtPIN8 protein (Uniprot: Q9LFP6) in lauryl maltose neopentyl glycol was described previously. All point mutants were generated using Q5 Site-Directed mutagenesis kit (New England Biolabs). The C-flat Holey Carbon grids (CF-1.2/1.3, Cu-300 mesh) were glow-discharged for 45 s at 15 mA in a GloQube Plus (Quorum). […] After 1 h of incubation on ice, the sample was centrifuged at 16,000 g for 15 min before blotting to remove precipitation. A drop of 4 µl of each sample was applied to the glow-discharged grids, blotted with a Vitrobot Mark IV (ThermoFisher Scientific) using the following settings (temperature 4 °C, 100% humidity, blot time of 4 s, blot force −1) and vitrified in liquid ethane."}, "PIN8 S55A/S146A": {"molecular_target": "T3, PIN8 S55A/S146A (Arabidopsis thaliana, UniProt Q9LFP6, S146A/S55A)", "T3 construct": "made in house", "T3 sequence (Q9LFP6 whole entry S55A/S146A)": "as the sequence (Q9LFP6 whole entry Y150F) above, with S55A, S146A, F150Y counted along it", "description": "as §1, §2"}, "PIN8 I51Y": {"molecular_target": "T4, PIN8 I51Y (Arabidopsis thaliana, UniProt Q9LFP6, I51Y)", "T4 construct": "made in house", "T4 sequence (Q9LFP6 whole entry I51Y)": "as the sequence (Q9LFP6 whole entry Y150F) above, with I51Y, F150Y counted along it", "description": "as §1, §2"}, "PIN8 N223A": {"molecular_target": "T5, PIN8 N223A (Arabidopsis thaliana, UniProt Q9LFP6, N223A)", "T5 construct": "made in house", "T5 sequence (Q9LFP6 whole entry N223A)": "as the sequence (Q9LFP6 whole entry Y150F) above, with F150Y, N223A counted along it", "description": "as §1, §2"}, "PIN8 S266A": {"molecular_target": "T6, PIN8 S266A (Arabidopsis thaliana, UniProt Q9LFP6, S266A)", "T6 construct": "made in house", "T6 sequence (Q9LFP6 whole entry S266A)": "as the sequence (Q9LFP6 whole entry Y150F) above, with F150Y, S266A counted along it", "description": "as §1, §2"}}, "note": "“And” between values parts separate entries of the source, which are not always exact repeats. Equal entries are not always repeated. Where two headings read alike, the source gives them in different places. The source gives many values for each of these; only a part stands here."}
{"smiles": "O=C(O)COc1ccc(Cl)cc1Cl", "note": "[2,4-D, 2,4-dichlorophenoxyacetic acid]", "values": [{"measurement": "Peak current", "setting": "A. thaliana PIN8; 100 μM 2,4-D, absence of NPA", "value": 4.879, "unit": "nA"}, {"measurement": "Peak current", "setting": "A. thaliana PIN8; WT, 50 µM substrate", "value": 4.242, "unit": "nA"}, {"measurement": "Peak current", "setting": "A. thaliana PIN8; WT, 100 µM substrate", "value": "5.8107 nA and 5.441 nA and 6.314 nA"}, {"measurement": "Peak current", "setting": "A. thaliana PIN8; WT, 500 µM substrate", "value": "11.5238 nA and 10.82 nA and 12.6647 nA"}, {"measurement": "Peak current", "setting": "A. thaliana PIN8; WT, 1000 µM substrate", "value": "13.8362 nA and 12.7682 nA and 15.2635 nA"}, {"measurement": "Peak current", "setting": "PIN8 Y150F; 5 µM substrate", "value": "0.078 nA and 0.361 nA and 0.415 nA"}, {"measurement": "Peak current", "setting": "PIN8 Y150F; 20 µM substrate", "value": "0.249 nA and 0.273 nA and 0.378 nA"}, {"measurement": "Peak current", "setting": "PIN8 Y150F; 50 µM substrate", "value": "0.678 nA and 0.852 nA and 0.964 nA"}, {"measurement": "Peak current", "setting": "PIN8 Y150F; 100 µM substrate", "value": "1.158 nA and 1.269 nA and 1.466 nA"}, {"measurement": "Peak current", "setting": "PIN8 Y150F; 500 µM substrate", "value": "2.927 nA and 2.963 nA and 3.216 nA"}, {"measurement": "Peak current", "setting": "PIN8 Y150F; 1000 µM substrate", "value": "4.013 nA and 4.163 nA and 4.27 nA"}, {"measurement": "Peak current", "setting": "PIN8 Y150F; 2000 µM substrate", "value": "5.287 nA and 6.435 nA and 6.284 nA"}, {"measurement": "Peak current", "setting": "PIN8 S55A/S146A; 5 µM substrate", "value": "1.091 nA and 1.269 nA and 1.096 nA and 1.233 nA"}, {"measurement": "Peak current", "setting": "PIN8 S55A/S146A; 20 µM substrate", "value": "2.74 nA and 3.317 nA and 2.687 nA and 3.21 nA"}, {"measurement": "Peak current", "setting": "PIN8 S55A/S146A; 50 µM substrate", "value": "4.576 nA and 5.447 nA and 4.222 nA and 5.281 nA"}, {"measurement": "Peak current", "setting": "PIN8 S55A/S146A; 100 µM substrate", "value": "5.821 nA and 7.052 nA and 5.494 nA and 7.009 nA"}, {"measurement": "Peak current", "setting": "PIN8 S55A/S146A; 500 µM substrate", "value": "7.699 nA and 9.912 nA and 7.438 nA and 10.224 nA"}, {"measurement": "Peak current", "setting": "PIN8 S55A/S146A; 1000 µM substrate", "value": "7.589 nA and 9.68 nA and 7.275 nA and 10.292 nA"}, {"measurement": "Peak current", "setting": "PIN8 S55A/S146A; 2000 µM substrate", "value": "7.252 nA and 9.015 nA and 6.538 nA and 9.462 nA"}, {"measurement": "Peak current", "setting": "PIN8 I51Y; 5 µM substrate", "value": "0.044 nA and 0.112 nA and 0.124 nA"}, {"measurement": "Peak current", "setting": "PIN8 I51Y; 20 µM substrate", "value": "0.046 nA and 0.09 nA and 0.062 nA"}, {"measurement": "Peak current", "setting": "PIN8 I51Y; 50 µM substrate", "value": "0.297 nA and 0.387 nA and 0.284 nA"}, {"measurement": "Peak current", "setting": "PIN8 I51Y; 100 µM substrate", "value": "0.568 nA and 0.749 nA and 0.55 nA"}, {"measurement": "Peak current", "setting": "PIN8 I51Y; 500 µM substrate", "value": "1.462 nA and 1.671 nA and 1.152 nA"}, {"measurement": "Peak current", "setting": "PIN8 I51Y; 1000 µM substrate", "value": "1.88 nA and 2.101 nA and 1.385 nA"}, {"measurement": "Peak current", "setting": "PIN8 I51Y; 2000 µM substrate", "value": "2.66 nA and 3.109 nA and 2.072 nA"}, {"measurement": "Peak current", "setting": "PIN8 N223A; 5 µM substrate", "value": "0.0124 nA and 0.01509 nA and 0.004723 nA"}, {"measurement": "Peak current", "setting": "PIN8 N223A; 20 µM substrate", "value": "0.01245 nA and 0.01298 nA and 0.01621 nA"}, {"measurement": "Peak current", "setting": "PIN8 N223A; 50 µM substrate", "value": "0.07483 nA and 0.06464 nA and 0.125 nA"}, {"measurement": "Peak current", "setting": "PIN8 N223A; 100 µM substrate", "value": "0.4074 nA and 0.3145 nA and 0.3925 nA"}, {"measurement": "Peak current", "setting": "PIN8 N223A; 500 µM substrate", "value": "1.183 nA and 1.575 nA and 1.146 nA"}, {"measurement": "Peak current", "setting": "PIN8 N223A; 1000 µM substrate", "value": "1.881 nA and 2.494 nA and 1.874 nA"}, {"measurement": "Peak current", "setting": "PIN8 N223A; 2000 µM substrate", "value": "3.084 nA and 4.009 nA and 3.08 nA"}, {"measurement": "Peak current", "setting": "PIN8 S266A; 5 µM substrate", "value": "0.2981 nA and 0.3384 nA and 0.2121 nA"}, {"measurement": "Peak current", "setting": "PIN8 S266A; 20 µM substrate", "value": "0.6514 nA and 0.6337 nA and 0.6283 nA"}, {"measurement": "Peak current", "setting": "PIN8 S266A; 50 µM substrate", "value": "1.218 nA and 1.225 nA and 1.216 nA"}, {"measurement": "Peak current", "setting": "PIN8 S266A; 100 µM substrate", "value": "1.902 nA and 2.022 nA and 1.988 nA"}, {"measurement": "Peak current", "setting": "PIN8 S266A; 500 µM substrate", "value": "4.265 nA and 4.394 nA and 4.521 nA"}, {"measurement": "Peak current", "setting": "PIN8 S266A; 1000 µM substrate", "value": "6.046 nA and 6.169 nA and 6.394 nA"}, {"measurement": "Peak current", "setting": "PIN8 S266A; 2000 µM substrate", "value": "8.685 nA and 8.632 nA and 9.161 nA"}]}
